Hit rate of the full screen: of about 310,000 compounds, about 14,000 (4.5%) showed an effect of 50% or more. Effects have a minus sign here. The list shows a part of the results.
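Also: peak tail current of the secondary pulse compared with the same well before compound.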

Sequence of human ether-à-go-go-related gene (hERG) potassium channel (Q12809 whole entry, looked up): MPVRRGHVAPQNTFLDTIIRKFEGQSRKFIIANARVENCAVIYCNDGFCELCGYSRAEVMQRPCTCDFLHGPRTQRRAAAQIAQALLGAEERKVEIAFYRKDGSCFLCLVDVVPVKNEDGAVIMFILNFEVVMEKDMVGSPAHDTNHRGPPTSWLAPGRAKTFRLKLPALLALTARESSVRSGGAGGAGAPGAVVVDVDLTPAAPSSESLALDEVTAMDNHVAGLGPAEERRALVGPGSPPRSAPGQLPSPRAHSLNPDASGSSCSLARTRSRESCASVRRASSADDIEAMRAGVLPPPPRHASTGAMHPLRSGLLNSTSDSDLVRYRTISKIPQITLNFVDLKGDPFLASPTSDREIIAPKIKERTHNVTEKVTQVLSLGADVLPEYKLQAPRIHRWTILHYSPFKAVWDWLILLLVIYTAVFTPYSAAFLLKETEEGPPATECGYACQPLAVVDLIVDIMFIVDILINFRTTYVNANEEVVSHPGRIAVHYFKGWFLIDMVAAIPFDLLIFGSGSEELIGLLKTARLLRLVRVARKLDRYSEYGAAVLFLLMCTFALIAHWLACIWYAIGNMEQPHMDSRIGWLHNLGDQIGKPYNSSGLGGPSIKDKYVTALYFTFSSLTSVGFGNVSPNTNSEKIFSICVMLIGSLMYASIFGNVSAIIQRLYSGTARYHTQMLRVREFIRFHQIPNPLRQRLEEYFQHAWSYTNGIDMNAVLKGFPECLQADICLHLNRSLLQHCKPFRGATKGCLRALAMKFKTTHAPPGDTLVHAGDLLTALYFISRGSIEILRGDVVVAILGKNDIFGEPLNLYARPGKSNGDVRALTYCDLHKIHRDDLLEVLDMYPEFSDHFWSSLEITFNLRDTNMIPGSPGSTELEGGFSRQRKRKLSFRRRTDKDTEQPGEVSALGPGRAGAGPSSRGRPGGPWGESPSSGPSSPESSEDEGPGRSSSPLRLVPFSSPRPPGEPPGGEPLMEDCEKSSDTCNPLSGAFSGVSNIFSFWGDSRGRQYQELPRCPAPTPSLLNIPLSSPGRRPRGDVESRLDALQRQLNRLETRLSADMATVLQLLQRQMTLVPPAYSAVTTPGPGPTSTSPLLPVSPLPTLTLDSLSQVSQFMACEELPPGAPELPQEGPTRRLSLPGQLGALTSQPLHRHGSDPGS

This assay addresses human ether-à-go-go-related gene (hERG) potassium channel (human, UniProt Q12809). Description: primary screen, population patch clamp on CHO cells stably expressing hERG.
`CCCCC1OC23CCCCC2C(C#N)(C(=N)O3)C1(C#N)C#N` (centres unmarked): the “hERG current change (%, negative = inhibition) at 10uM” value was 4.17%. As to `CCCCCCC1CC(=O)NC(=S)N1` (centres unmarked), the “hERG current change (%, negative = inhibition) at 10uM” value is reported as 17.4%. As to `COC(=O)Cn1cnc2sc(C)c(S(=O)(=O)N3CCC(C)CC3)c2c1=O`, the “hERG current change (%, negative = inhibition) at 10uM” value is -6.66%.

On to `COc1ccc(C(=O)C(OC(=O)c2ccccc2)c2ccccc2)cc1` (centres unmarked), for which the “hERG current change (%, negative = inhibition) at 10uM” value is reported as -1.35%. The value for `COc1ccc(NC(=O)C2CCCN(S(=O)(=O)c3ccc(Cl)cc3)C2)cc1OC` (centres unmarked) was 6.79%. For `Cc1ccc(C(=O)NCCCNCCCNC(=O)c2ccc(C)nc2)cn1` the value was -17.1%; for `CCCNC(=O)OC[C@H]1O[C@H](CCO/N=C/[C@@H](OC)[C@H](C)/C=C/CC(=O)OC)C=C[C@@H]1Oc1ccc(OC)cc1`, -11.1%. With `O=C(NCc1ccccn1)C(=O)NCC(c1ccco1)N1CCN(c2ccc(F)cc2)CC1` (centres unmarked), the “hERG current change (%, negative = inhibition) at 10uM” value is reported as -32.9%. As to `CCOc1ccccc1N1CCN(C(=O)c2csc(C)c2CC)CC1`, the “hERG current change (%, negative = inhibition) at 10uM” value is given as -8.41%. For the compound `Cc1noc(/C=C/c2ccco2)c1S(=O)(=O)N1CCC(C(=O)Nc2ccc(Cl)cn2)CC1`, the “hERG current change (%, negative = inhibition) at 10uM” value is on record as -29.3%.

Consider `CC(C)[C@H](N)c1cn([C@@H](CC(N)=O)C(=O)N2CCNCC2)nn1`, for which the “hERG current change (%, negative = inhibition) at 10uM” value is reported as 7.33%. For `Cc1ccc(CCNC(=O)CCS(=O)(=O)c2cc3c(cc2C)NC(=O)CO3)cc1` the value was 3.1%. As to `COCCn1c(CCc2ccccc2)n[nH]c1=S`, the “hERG current change (%, negative = inhibition) at 10uM” value is listed as 14.6%. For `COC(=O)C(NC(=O)c1cccnc1Cl)C(C)C` (centres unmarked) the value was -13.6%; for `Cc1ccc(N(CC(=O)N=Nc2c(O)[nH]c3ccccc23)S(C)(=O)=O)c(C)c1`, -27.8%.

With `Cc1ccc(S(=O)(=O)NC(C)(C)CSc2nnc(Nc3ccccc3)s2)cc1`, the “hERG current change (%, negative = inhibition) at 10uM” value was -1.34%. The value for `Cc1noc(C)c1CSc1nnc2ccccn12` was 5.58%. For `CSc1nc(=S)n(-c2ccccc2)c(C)c1C(C)=O` the value was 11.9%; for `CCCn1c(NC(=O)CSCC(=O)Nc2cc(C)on2)nc2ccccc21`, 10.8%; for `CCOCCCNC(=O)c1cc(Sc2ccc(C)cc2)nc2ccccc12`, -19.3%. The value for `COc1ccc(-c2nnnn2-c2ccccc2OC)cc1` was -9.02%; that for `CCOC(=O)c1ccc(Nc2nc(N)c3cc(OC)c(OC)cc3n2)cc1` was 1.84%.

For the compound `O=C(NC1CCN(C(=O)Nc2ccc(F)cc2)CC1)c1ccccc1F`, the “hERG current change (%, negative = inhibition) at 10uM” value was -5.82%. Turning to `COc1ccc(/C=C/C(=O)NCC(c2ccc(F)cc2)N2CCOCC2)cc1OC` (centres unmarked), the “hERG current change (%, negative = inhibition) at 10uM” value was found to be 2.15%. The value for `Cc1ccc(C(=O)NN(C)c2nc3ccccc3nc2C(F)(F)F)cc1` was -0.286%; that for `Cl.OC(CNCc1cccc(Br)c1)c1ccccc1` (centres unmarked) was -44%.

For the compound `Cl.NC(N)=NC(N)=Nc1cccc(Cl)c1`, the “hERG current change (%, negative = inhibition) at 10uM” value is -2.14%. For `CCC1=C2CC[C@H]3C(=O)NC(=O)[C@H]3[C@H]2[C@@]2(Cc3ccccc3)C(=NCC(=O)OC)OC(=O)N2C1=O` the value was 18.7%. Consider `CCN(CC)C(=O)CSc1nc2cc3c(cc2c(=O)n1Cc1ccc(OC)cc1)OCO3`, for which the “hERG current change (%, negative = inhibition) at 10uM” value amounted to 12.1%. The value for `COc1ccccc1CCNC(=O)c1cnn2c(C(F)F)cc(C)nc12` was -33.6%. For `Nn1c(=O)c2ccccc2n2c(SCc3ccccc3)nnc12` the value was -37.5%. `O=C1Cc2ccccc2C(=O)N1c1ccccc1`: the “hERG current change (%, negative = inhibition) at 10uM” value was -14.7%. On to `COC(=O)CNC(c1ccccc1)c1cc(Br)ccc1NC(=O)CCN1CCOCC1` (centres unmarked), for which the “hERG current change (%, negative = inhibition) at 10uM” value is on record as -31.7%. For the compound `Cc1ccc(NC(=O)C2CCN(C(=O)[C@@H]3Cc4ccccc4CN3)CC2)c(C)c1`, the “hERG current change (%, negative = inhibition) at 10uM” value was -41.4%. The value for `O=C(O)CCC(=O)/C=C/c1ccccc1` was 26.4%; that for `COc1cccc(/C=N/NC(=O)CN2CC(c3ccccc3)CC2=O)c1OC` (centres unmarked) was -10%. For `CCOC(=O)c1cc(-c2ccco2)nc2c1c(C)nn2-c1cccc(Cl)c1` the value was 0.799%. The value for `O=C(Oc1cccnc1)c1ccc([N+](=O)[O-])cc1Cl` was -2.42%; that for `Cl.OCCN(CCO)c1nc(-c2ccccc2)nc2c1oc1ccccc12` was 27.4%; that for `NC(=O)CN1C(=O)C(O)(CC(=O)c2ccccc2O)c2ccccc21` (centres unmarked) was 4.9%. For `Cc1c(NC(=O)Nc2ccc(C#N)cc2)c(=O)n(-c2ccccc2)n1C`, the “hERG current change (%, negative = inhibition) at 10uM” value is given as -2.41%. In the case of `COC(=O)C1CC(O)CN1S(=O)(=O)c1cccs1` (centres unmarked), the “hERG current change (%, negative = inhibition) at 10uM” value is reported as 21.2%. The value for `CCc1ccc(NC2=NCCCS2)cc1` was -9.94%.

For the compound `O=C(Cc1cccs1)Nn1c(Cc2cccs2)nc2ccccc2c1=O`, the “hERG current change (%, negative = inhibition) at 10uM” value was determined as 3.3%.

For `CC(C)(C)[C@@H]1C=C(C(=O)O)O[C@H](OCc2ccc(CO)cc2)C1`, the “hERG current change (%, negative = inhibition) at 10uM” value is on record as 5.98%.

Turning to `CN1C(C)(C)CC(=NOC(=O)c2ccccc2)CC1(C)C`, the “hERG current change (%, negative = inhibition) at 10uM” value is -16.9%. Regarding `O=C(Cn1c(=O)n2ncnc2c2c3c(sc21)CCCC3)c1ccccc1`, the “hERG current change (%, negative = inhibition) at 10uM” value was -20.1%.

As for `COC(=O)C1C(=O)NCC1c1ccc(OC)cc1` (centres unmarked), the “hERG current change (%, negative = inhibition) at 10uM” value came out at 3.5%. Consider `Nc1c2c(nc3sc4c(c13)CCCC4)CCCCCC2`, for which the “hERG current change (%, negative = inhibition) at 10uM” value is reported as -2.15%. `O=C(NC1CC2CCC(C1)N2Cc1ccco1)c1ccccc1` (centres unmarked): the “hERG current change (%, negative = inhibition) at 10uM” value was -25.4%. The value for `Cc1c(NC(=S)N/N=C/c2ccc(O)cc2)c(=O)n(-c2ccccc2)n1C` was 8.18%; that for `CC(C)Cc1ccc(S(=O)(=O)N2CCN(c3ccccn3)CC2)cc1` was 17.3%.

As to `O=C(CC1C(=O)N(c2ccccc2)C(=S)N1c1ccccc1)c1ccc(Br)cc1` (centres unmarked), the “hERG current change (%, negative = inhibition) at 10uM” value is reported as 22.9%. `O=C1/C(=C/c2ccncc2)Oc2cc(OS(=O)(=O)c3ccccc3)ccc21`: the “hERG current change (%, negative = inhibition) at 10uM” value is listed as -2.95%. The value for `COC(=O)CNC(=O)CCC(=O)N1CCN(C(c2ccccc2)c2ccccc2)CC1` was -0.103%; that for `CCOC(=O)C1CCCN(C(=O)CCNS(=O)(=O)c2ccc3c(c2)CCC(=O)N3)C1` (centres unmarked) was 3.03%.

For `CC1CCN(CC(=O)N2c3ccccc3CC2C)CC1.Cl` (centres unmarked), the “hERG current change (%, negative = inhibition) at 10uM” value was 1.42%. The value for `O=C(COC(=O)C1CCCC1)NCc1ccc(Cl)cc1` was -4.3%; that for `N/C(=N\OC(=O)CN1C(=O)c2ccccc2C1=O)c1ccc(Br)cc1` was 15.5%; that for `CCCc1nnc(NC(=O)CCC(=O)N2CCN(CCn3c(C)ccc3C)CC2)s1` was 4.28%. For `CCC(c1ccccc1)c1nc(-c2cccnc2)no1` (centres unmarked) the value was -14.1%; for `Cc1ccc(S(=O)(=O)Oc2ccccc2/C=N/N=C(N)N)cc1`, -27.5%. As to `CCc1cccc(CC)c1NC(=O)Cn1c(-c2ccccc2Cl)nc2ccccc21`, the “hERG current change (%, negative = inhibition) at 10uM” value was 11.5%. The value for `Brc1cccc(CN2CCCCCCC2)c1` was -5.2%.

On to `Cc1ccc(S(=O)(=O)Nc2nc3c(s2)C(=O)CC(C)(C)C3)cc1`, for which the “hERG current change (%, negative = inhibition) at 10uM” value is on record as 13.5%.

As for `Cc1cc(C(=O)Nc2cccc(S(=O)(=O)N3CCCC3)c2)c2ccccc2n1`, the “hERG current change (%, negative = inhibition) at 10uM” value amounted to 7.45%. For `CCN(C(=O)c1ccccc1F)c1nc(-c2ccc(OC)cc2)cs1` the value was 22.8%.

On to `CCC(=O)Nc1c2c(nn1-c1cccc(Cl)c1)CS(=O)(=O)C2`, for which the “hERG current change (%, negative = inhibition) at 10uM” value was -38.7%. `O=C(Nc1cccc(NC(=S)NC(=O)c2cccs2)c1)c1ccccc1`: the “hERG current change (%, negative = inhibition) at 10uM” value was determined as 10.9%. For `Cc1c(NC(=O)C(=O)N/N=C/c2cccs2)c(=O)n(-c2ccccc2)n1C` the value was 16.5%. Regarding `CCc1cc(=O)[nH]c(SCc2cccc3ccccc23)n1`, the “hERG current change (%, negative = inhibition) at 10uM” value is recorded as 13.3%.

Take `CCCc1nc(SCC(=O)Nc2ccccc2OC)c2c(=O)n(C)c(=O)n(C)c2n1`: the “hERG current change (%, negative = inhibition) at 10uM” value was -7.7%. With `CCS(=O)(=O)N1CCC(C(=O)Nc2cc(Cl)ccc2O)CC1`, the “hERG current change (%, negative = inhibition) at 10uM” value is listed as 0.943%. For `CCCOc1ccc(C(=O)Nc2ccc(S(=O)(=O)Nc3onc(C)c3C)cc2)cc1` the value was 13.8%. For `Cn1c(NC(=O)c2ccco2)c(-c2ccc(Cl)cc2)c(=O)c2ccccc21` the value was 20.8%; for `Cc1nn(Cc2ccccc2Cl)c(Cl)c1C(=O)O`, 8.83%; for `Cc1cccc(NC(=O)CSc2nnc(NC(=O)CN3CCCCC3)s2)c1`, -7.69%.

For the compound `CN(C)CCNc1oc(-c2cccc(Cl)c2)nc1C#N`, the “hERG current change (%, negative = inhibition) at 10uM” value is given as -36.2%. For `Nc1ncn([C@@H]2O[C@H](CO)[C@@H](O)[C@H]2O)c(=O)n1`, the “hERG current change (%, negative = inhibition) at 10uM” value is -1.53%.

In the case of `O=C(CCCNS(=O)(=O)c1cccc2nsnc12)NCCc1ccccc1`, the “hERG current change (%, negative = inhibition) at 10uM” value is on record as 5.61%. For `O/N=C1\CCCC\C1=C/c1ccccc1` the value was -8.27%.

For `CN1C[C@@H]2C(c3ccc(C(F)(F)F)cc3)C3(c4cccnc4)CC2(C3)[C@H]1c1ccccc1` (some centres unmarked), the “hERG current change (%, negative = inhibition) at 10uM” value is reported as -60%.

For the compound `CC(C)OC(=O)CN1C(=O)C(C)(C)Oc2ccc(C(=O)NC(C)(C)C)cc21`, the “hERG current change (%, negative = inhibition) at 10uM” value came out at 2.74%. For the compound `CC1(C)C=C(c2ccc(C=O)s2)CC(C)(C)N1`, the “hERG current change (%, negative = inhibition) at 10uM” value was -4.45%. For the compound `O=C1CC(Sc2nnnn2C2CCCCC2)C(=O)N1c1ccccc1` (centres unmarked), the “hERG current change (%, negative = inhibition) at 10uM” value was found to be 0.56%.

As for `O=C(CCNS(=O)(=O)c1ccccc1)N1CCC(Cc2ccccc2)CC1`, the “hERG current change (%, negative = inhibition) at 10uM” value is recorded as -16.8%.

In the case of `Cc1cccc(C)c1N1CCN(S(=O)(=O)N2CCCCC2)CC1`, the “hERG current change (%, negative = inhibition) at 10uM” value was 18.9%. For `CCCc1nnc(NC(=O)CN2C(=O)c3ccccc3S2(=O)=O)s1` the value was 10.6%. For `Cc1ccc(C)c(OCc2ccc(C(=O)NN)o2)c1` the value was -1.95%.

These data come from paper PMC4336329 (PLoS ONE, 2015).
